Experimental data taken from patent US20240131068A1 (KITE PHARMA, published 2024).
Blank lines part the entries; values can stand above or below the binder they belong to.

Target: T1, native CD19 expressed on NALM6 tumor cells (UniProt P15391 20-556)
T1 construct: whole, on cells; also called CD19^+ NALM6; NALM6-wt
T1 sequence (looked up): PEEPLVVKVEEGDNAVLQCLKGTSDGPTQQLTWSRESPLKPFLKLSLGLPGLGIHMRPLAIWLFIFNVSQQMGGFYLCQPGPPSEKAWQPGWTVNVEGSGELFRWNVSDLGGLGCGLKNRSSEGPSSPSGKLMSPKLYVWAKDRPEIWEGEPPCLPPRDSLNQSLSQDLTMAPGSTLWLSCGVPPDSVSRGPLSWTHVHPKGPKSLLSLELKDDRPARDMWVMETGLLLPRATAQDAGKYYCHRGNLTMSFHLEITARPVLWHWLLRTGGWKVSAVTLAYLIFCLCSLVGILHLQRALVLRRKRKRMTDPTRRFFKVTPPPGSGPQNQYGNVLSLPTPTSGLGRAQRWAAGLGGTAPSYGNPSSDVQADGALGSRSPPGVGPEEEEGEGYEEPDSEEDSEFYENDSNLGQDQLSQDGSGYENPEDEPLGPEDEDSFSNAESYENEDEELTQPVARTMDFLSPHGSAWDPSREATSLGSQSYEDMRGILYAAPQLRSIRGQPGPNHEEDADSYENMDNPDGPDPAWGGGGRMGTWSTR
Assay: screen of scFv clones on CD19^+ NALM6 cells, Nalm6-CD19KO cells as negative control

binding result: binds
B1: CD19 A4 scFv (P2) (scFv)
scFv: [no letters for about 100 residues]SWTFGQGTKVEIKGGGGSGGGGSGGGGSQVQLVQSGAEVKKPGSSVKVSCKASGGTFSNYYISWVRQAPGQGLEWMGGIIPLFGTTNYAQKFQGRVTITADESTSTAYMELSSLRSEDTAVYYCARGTWYAGDIWGQGTLVTVSS
notes: scFv clone from the display library, screened as a library clone; also called 43; clone 43

binding result: binds
B2: CD19 E4 scFv (P3) (scFv)
scFv: [no letters for about 100 residues]VTFGQGTKVEIKGGGGSGGGGSGGGGSQVQLVQSGAEVKKPGSSVKVSCKASGGTFSNYAINWVRQAPGQGLEWMGRIVPLLGIANYAQKFQGRVTITADESTSTAYMELSSLRSEDTAVYYCAREHIAYRPTSAGYYYYMDIWGQGTLVTVSS
notes: scFv clone from the display library, screened as a library clone; also called 44; clone 44
